Reference: paper PMC5745004
No constants are given. Whether binding was seen depends on the method and setting. For some of these results: Binding seen in cells or lysates may run through a third protein. Some binding calls cover weakened binding; strength is not graded here. One block for each molecule: values may come before it.

Amino acid sequences for entries named in this document (tags omitted). A change or cut given only in a name is not applied to a line headed by its entry. Chains listed by the source or under a name are the forms on record and can include a tag or linker.
UniProt P23321: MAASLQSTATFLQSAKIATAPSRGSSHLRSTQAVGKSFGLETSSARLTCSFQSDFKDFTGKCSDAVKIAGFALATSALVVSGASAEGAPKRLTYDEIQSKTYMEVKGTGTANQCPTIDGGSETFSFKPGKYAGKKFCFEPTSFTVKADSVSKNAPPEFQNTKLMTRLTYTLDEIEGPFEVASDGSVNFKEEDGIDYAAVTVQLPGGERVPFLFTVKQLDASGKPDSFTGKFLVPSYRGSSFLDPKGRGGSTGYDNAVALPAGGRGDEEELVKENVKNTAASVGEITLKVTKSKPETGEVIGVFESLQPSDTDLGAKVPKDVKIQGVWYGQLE
PsbO1* (PsbO1 clone found in the pJG4-5 prey library, lacking the first 22 amino acids, T200A) (P23321, form named): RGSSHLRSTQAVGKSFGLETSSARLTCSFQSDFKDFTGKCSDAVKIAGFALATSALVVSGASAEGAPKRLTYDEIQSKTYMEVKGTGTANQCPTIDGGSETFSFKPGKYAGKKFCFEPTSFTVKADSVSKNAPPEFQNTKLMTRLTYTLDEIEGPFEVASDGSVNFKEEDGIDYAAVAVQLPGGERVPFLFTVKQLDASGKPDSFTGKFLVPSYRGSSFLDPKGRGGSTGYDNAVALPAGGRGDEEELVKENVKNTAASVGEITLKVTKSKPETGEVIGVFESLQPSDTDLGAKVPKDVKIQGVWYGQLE
mature form PsbO1^T200A, HA-tagged prey (P23321, form named): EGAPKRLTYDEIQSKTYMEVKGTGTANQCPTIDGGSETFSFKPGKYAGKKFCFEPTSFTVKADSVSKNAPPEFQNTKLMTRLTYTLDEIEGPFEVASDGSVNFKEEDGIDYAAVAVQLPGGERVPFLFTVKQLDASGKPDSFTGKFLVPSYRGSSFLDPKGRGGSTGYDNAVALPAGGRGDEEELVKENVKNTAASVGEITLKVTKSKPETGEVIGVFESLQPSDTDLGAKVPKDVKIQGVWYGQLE

Key:
[1] = target: T1, HSP90C middle and C-terminal domains (HSP90C-MC), bait in pEG202 (Arabidopsis) (UniProt Q9SIF2); assay: two-hybrid; library screen: HSP90C-MC bait in pEG202, Arabidopsis inflorescence cDNA prey library in pJG4-5, S. cerevisiae EGY48, LEU2 and lacZ markers, three rounds; hits sequenced and retransformed (dilution assay on SG-UHWL, 30°C, 4 days)
T1 sequence: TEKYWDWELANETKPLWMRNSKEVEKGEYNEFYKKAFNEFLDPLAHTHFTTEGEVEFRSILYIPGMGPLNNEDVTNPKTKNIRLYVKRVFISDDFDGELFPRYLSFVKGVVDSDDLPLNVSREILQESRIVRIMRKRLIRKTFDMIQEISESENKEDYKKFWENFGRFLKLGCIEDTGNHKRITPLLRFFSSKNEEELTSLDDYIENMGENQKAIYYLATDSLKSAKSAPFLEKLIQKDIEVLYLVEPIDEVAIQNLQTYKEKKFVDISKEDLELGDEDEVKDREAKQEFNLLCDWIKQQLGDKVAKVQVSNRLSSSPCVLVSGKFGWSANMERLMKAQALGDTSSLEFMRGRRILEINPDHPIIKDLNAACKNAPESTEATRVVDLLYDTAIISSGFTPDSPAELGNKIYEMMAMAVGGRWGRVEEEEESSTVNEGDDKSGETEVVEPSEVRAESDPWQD

[2] = target: T1, HSP90C middle and C-terminal domains (HSP90C-MC), bait in pEG202 (Arabidopsis); assay: two-hybrid; directed tests in S. cerevisiae EGY48 of re-constructed PsbO1 forms (prey) with HSP90C-MC or HSP90C-N
[3] = target: T2, HSP90C N-terminal domain (HSP90C-N) (Arabidopsis) (UniProt Q9SIF2); assay: as above
T2 sequence: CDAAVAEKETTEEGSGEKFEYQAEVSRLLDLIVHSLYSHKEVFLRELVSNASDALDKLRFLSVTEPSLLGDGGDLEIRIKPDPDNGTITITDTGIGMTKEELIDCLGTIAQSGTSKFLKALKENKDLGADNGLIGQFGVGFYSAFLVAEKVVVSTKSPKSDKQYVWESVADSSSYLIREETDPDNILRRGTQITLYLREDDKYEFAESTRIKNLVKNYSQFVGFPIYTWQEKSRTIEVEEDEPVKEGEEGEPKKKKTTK

[4] = target: mature form PsbO1^T200A, HA-tagged prey (Arabidopsis) (UniProt P23321); assay: co-IP; HA-tagged PsbO1^T200A precipitated with anti-HA affinity resin from EGY48 yeast cell lysate; HSP90C-MC detected with anti-LexA or anti-HSP90C
[5] = target: full length (pre-protein) PsbO1^T200A, prey (Arabidopsis) (UniProt P23321); assay: as above

binding [1]: binds
Molecule: PsbO1* (PsbO1 clone found in the pJG4-5 prey library, lacking the first 22 amino acids, T200A) (from UniProt P23321 23-332) (domain or fragment)

binding [2]: binds
Molecule: full length (pre-protein) PsbO1^T200A, prey (from UniProt P23321 1-332)

binding [2]: binds
Molecule: mature form PsbO1^T200A, HA-tagged prey (from UniProt P23321 86-332) (domain or fragment)

binding [2]: binds
binding [3]: no binding
Molecule: native PsbO1 mature form, prey (from UniProt P23321 86-332) (domain or fragment)

binding [4]: binds
binding [5]: binds
B1: HSP90C middle and C-terminal domains (HSP90C-MC), bait in pEG202 (domain or fragment, UniProt Q9SIF2 320-780)
chain: TEKYWDWELANETKPLWMRNSKEVEKGEYNEFYKKAFNEFLDPLAHTHFTTEGEVEFRSILYIPGMGPLNNEDVTNPKTKNIRLYVKRVFISDDFDGELFPRYLSFVKGVVDSDDLPLNVSREILQESRIVRIMRKRLIRKTFDMIQEISESENKEDYKKFWENFGRFLKLGCIEDTGNHKRITPLLRFFSSKNEEELTSLDDYIENMGENQKAIYYLATDSLKSAKSAPFLEKLIQKDIEVLYLVEPIDEVAIQNLQTYKEKKFVDISKEDLELGDEDEVKDREAKQEFNLLCDWIKQQLGDKVAKVQVSNRLSSSPCVLVSGKFGWSANMERLMKAQALGDTSSLEFMRGRRILEINPDHPIIKDLNAACKNAPESTEATRVVDLLYDTAIISSGFTPDSPAELGNKIYEMMAMAVGGRWGRVEEEEESSTVNEGDDKSGETEVVEPSEVRAESDPWQD
